Laboratory results: PMC4336329 (PLoS ONE, 2015)
About 14,000 (4.5%) of roughly 310,000 compounds showed an effect of 50% or more. The effect is printed as a negative number. The list shows a part of the results.

Biological target: human ether-à-go-go-related gene (hERG) potassium channel (human, UniProt Q12809)
Assay: primary screen, population patch clamp on CHO cells stably expressing hERG
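Further: peak tail current of the secondary pulse compared with the same well before compound.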

Sequence of human ether-à-go-go-related gene (hERG) potassium channel (Q12809 whole entry, looked up): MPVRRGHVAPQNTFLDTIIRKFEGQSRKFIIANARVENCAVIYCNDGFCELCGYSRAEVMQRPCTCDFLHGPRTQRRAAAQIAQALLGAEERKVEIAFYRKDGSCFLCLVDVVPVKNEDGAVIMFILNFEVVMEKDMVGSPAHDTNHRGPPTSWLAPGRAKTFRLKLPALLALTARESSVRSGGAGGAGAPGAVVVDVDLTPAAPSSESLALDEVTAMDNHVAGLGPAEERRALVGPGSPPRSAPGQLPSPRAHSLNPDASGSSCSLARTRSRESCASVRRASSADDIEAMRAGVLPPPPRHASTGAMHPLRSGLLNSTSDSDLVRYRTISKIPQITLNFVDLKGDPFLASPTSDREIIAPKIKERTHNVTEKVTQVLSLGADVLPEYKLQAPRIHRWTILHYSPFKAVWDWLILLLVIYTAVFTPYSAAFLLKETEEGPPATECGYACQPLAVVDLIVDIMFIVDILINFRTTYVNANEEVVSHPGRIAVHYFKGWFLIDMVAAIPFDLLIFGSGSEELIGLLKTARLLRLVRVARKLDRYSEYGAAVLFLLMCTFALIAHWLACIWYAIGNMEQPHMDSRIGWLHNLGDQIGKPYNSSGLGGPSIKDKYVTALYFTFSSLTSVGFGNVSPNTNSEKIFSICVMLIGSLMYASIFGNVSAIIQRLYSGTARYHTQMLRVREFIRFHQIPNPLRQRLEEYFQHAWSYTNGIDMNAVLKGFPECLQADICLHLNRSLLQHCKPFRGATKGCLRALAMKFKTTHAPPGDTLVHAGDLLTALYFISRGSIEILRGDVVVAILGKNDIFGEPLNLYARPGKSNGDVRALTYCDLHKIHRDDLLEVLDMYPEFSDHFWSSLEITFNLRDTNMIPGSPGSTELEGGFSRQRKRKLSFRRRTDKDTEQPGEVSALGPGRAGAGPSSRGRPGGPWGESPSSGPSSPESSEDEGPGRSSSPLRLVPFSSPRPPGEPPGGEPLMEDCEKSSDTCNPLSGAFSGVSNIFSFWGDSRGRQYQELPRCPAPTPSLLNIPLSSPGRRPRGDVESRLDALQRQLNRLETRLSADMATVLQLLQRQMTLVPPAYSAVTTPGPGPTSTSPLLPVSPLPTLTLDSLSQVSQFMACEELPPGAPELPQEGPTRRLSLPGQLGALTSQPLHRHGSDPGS

Row | Compound | hERG current change (%, negative = inhibition) at 10uM [%]
1 | Cc1cccc(CCNC(=O)C2CCC(CNS(=O)(=O)c3cccs3)CC2)c1 (stereo not shown) | 7.67
2 | COC(=O)c1c(C)[nH]c(C(=O)C(C)[N+]23CCN(CC2)CC3)c1C.[Cl-] (stereo not shown) | 3.78
3 | COc1ccc(C(=O)O)cc1F | 16
4 | N/C(COc1ccccc1)=N\NC(=O)c1cccnc1Oc1ccccc1 | 6.43
5 | CC(CNC(=O)c1cc(COc2c(F)cccc2F)on1)c1ccccc1 (stereo not shown) | -1.55
6 | Cc1nc2nc[nH]n2c(=O)c1NS(=O)(=O)c1ccc(F)cc1 | 21.8
7 | O=C(CSc1nnc(NC(=O)c2c(F)cccc2F)s1)NC1CCCCC1 | 6.01
8 | Cc1ccc(OCCNS(=O)(=O)c2cccs2)cc1 | 1.75
9 | CCCCn1nnnc1NCc1ccc(C)cc1 | 13.2
10 | Cc1cc(C)c(S(=O)(=O)N(C)Cc2cnn(C)c2)c(C)c1 | 5.95
11 | CCc1ccc(-c2csc(NC(=O)c3cccnc3)n2)cc1 | -3.93
12 | Cc1ccc(OCc2cc(C(=O)N3CCc4[nH]cnc4C3c3ccccn3)no2)cc1C (stereo not shown) | -13.8
13 | O=[N+]([O-])c1ccc(Sc2ccccc2)nc1 | 8.82
14 | CC(=O)N1CCN(C(=O)c2ccc(-c3ccccc3Cl)o2)CC1 | -20
15 | CNC(=O)CCCN1C(=O)c2ccccc2Sc2ncccc21 | 23.9
16 | Cc1nc(C)c(-c2ccc(SCc3ccc(Cl)cc3)nn2)s1 | -14.7
17 | C=CCn1c(SCC(=O)N2CC(=O)Nc3ccccc32)nc2scc(-c3ccccc3)c2c1=O | -1.72
18 | CC(C)c1ccccc1OS(N)(=O)=O | 5.49
19 | COc1ccc(CC(=O)NC(C)c2nnc(SCC(=O)c3ccc(Br)cc3)n2C)cc1 (stereo not shown) | -9.89
20 | Cc1cccc(N(CC(=O)N2CCCCCC2)S(C)(=O)=O)c1 | 20.5

Row | Compound | hERG current change (%, negative = inhibition) at 10uM [%]
21 | COc1cc2c(C#N)c(N3CCN(C)CC3)nc(N)c2c(N)n1 | -7.71
22 | COc1ccc(S(=O)(=O)N2CCC(NC(=O)C(Cc3cccc(OC)c3OC)NC(C)=O)CC2)cc1 (stereo not shown) | 7.12
23 | CCOC(=S)SCc1cn2ccc(C)cc2n1 | -44.5
24 | Cc1ccc(C(=O)NCCCN2CCOCC2)cc1 | 3.81
25 | CCOC(=O)c1c(C)[nH]c(C)c1S(=O)(=O)NCCc1sccc1C | -0.705
26 | Cc1ccccc1-c1nc2c(s1)CCc1onc(-c3ccc(Cl)cc3)c1-2 | 12.1
27 | c1ccc(Cn2nnc3c(N4CCc5ccccc54)ncnc32)cc1 | 8.39
28 | CC(=O)N1c2ccc(S(=O)(=O)N3CCCCC3)cc2CC1C(=O)Nc1ccc(C)cc1 (stereo not shown) | -2.69
29 | CCOc1ccc(-c2c(C(=O)N/N=C(\C)c3ccncc3)nnn2-c2nonc2N)cc1 | 11.8
30 | Cc1ccc(C2N3CC4([N+](=O)[O-])CN2CC([N+](=O)[O-])(C3)C4(C)C)cc1 (stereo not shown) | 12.2
31 | COc1ccccc1N1CCN(c2ncnc3sc(C(=O)NCC4CCCO4)c(C)c23)CC1 (stereo not shown) | -5
32 | COC(=O)c1c(NC(=O)C(=O)NCCCN2CCOCC2)sc2c1CCC2 | -4.55
33 | COc1ccc(C(NC(=O)C(C)C)c2c(O)ccc3ccccc23)cc1OC (stereo not shown) | -15
34 | Cc1cccc(NC(=O)c2ccc(S(=O)(=O)N3CC(C)OC(C)C3)cc2)n1 (stereo not shown) | -2.03
35 | O=C(O)c1ccccc1OCc1ccccc1Cl | 6.55
36 | CCN(CC)c1ncnc2scc(C3COc4ccccc4O3)c12 (stereo not shown) | -8.77
37 | Cc1cccc(N2CCN(C(=O)C3CCCCC3)CC2)c1C | -24.8
38 | CC(C)(C)NC(=O)c1ccc2nsnc2c1 | 5.74
39 | CC(C)(C)C(=O)/C(C#N)=C/c1ccc(O)cc1 | 15.2
40 | Cc1ccc(-c2csc3ncnc(Cl)c23)cc1 | -3.12

Row | Compound | hERG current change (%, negative = inhibition) at 10uM [%]
41 | CCCOc1ccc(N/C=C/C(=O)C(C)(C)C)cc1 | 5.6
42 | CCn1c(=O)n(CC)c2cc(NS(=O)(=O)c3ccccc3)ccc21 | -68.7
43 | Cc1nc(NCc2ccc(S(N)(=O)=O)cc2)c2c(C)c(C)sc2n1 | 2.83
44 | CCOc1ccc(NC(=O)CN(C)S(=O)(=O)c2cccs2)cc1 | -0.397
45 | COc1ccc(C2OC(=O)CC2C(=O)NCc2ccc(Cl)cc2)cc1OC (stereo not shown) | -15.4
46 | O=C(NCC1CCCO1)C1CCN(C2CCN(C(=O)C3CCCCC3)CC2)CC1 (stereo not shown) | 4.5
47 | Fc1ccc(CN2CCCN(C(=S)Nc3ccc(F)cc3)CC2)cc1 | -15.1
48 | Cc1cccc(OCC(=O)Nc2cc(S(=O)(=O)N3CCOCC3)ccc2N2CCCC2)c1C | 9.48
49 | O=c1cc(CO)oc(C(Nc2ccccn2)c2ccsc2)c1O (stereo not shown) | 0.895
50 | Cc1cc(C)c2c(N)c(C(=O)NNC(=O)c3ccccc3)sc2n1 | -2.06
51 | Fc1ccccc1Cn1cc(C(=S)N2CCOCC2)c2ccccc21 | -1.06
52 | COc1cc2c(cc1OC)CN(C(=O)CN1C(=O)NC3(CCC(C)CC3)C1=O)CC2 (stereo not shown) | -4.92
53 | COc1ccc(NC(=O)CSc2nc(N)cc(N)n2)cc1S(=O)(=O)N1CCCCC1 | 17.2
54 | CC(C)(C)OC(=O)N1CCC(C(=O)N2CCC[C@H]2C(=O)O)CC1 | 23.7
55 | COc1cc(/C=N/n2c(-c3cc(C)[nH]n3)n[nH]c2=S)cc(OC)c1O | 28.5
56 | Brc1ccc(-c2nc3ccccc3s2)s1 | 0.64
57 | CCOC(=O)c1ccccc1NC(=O)Cn1cnc2c(cnn2C(C)(C)C)c1=O | 5.04
58 | CCOc1ccc2nc(N3CCC(C(=O)NCCCN4CCOCC4)CC3)sc2c1 | -17.7
